Assay results from the supplement of paper PMC8728848.
The list shows a part of the results.

Columns and labels:
Experiment in all cases: glycan array binding signal (z-score within array); higher = stronger binding
Conditions in all cases: glycan notation: IUPAC condensed, linker removed
[1] = biological target: Gal(b1-4)GlcNAc(b1-2)Man(a1-6)Man(b1-4)GlcNAc(b1-4)GlcNAc
Outline: (§1)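 Glycan array data came from 3228 arrays in the Consortium for Functional Glycomics database, and only arrays with an available protein sequence were kept. Glycan names were put into IUPAC-condensed notation, and columns mapping to the same glycan were averaged. The binding signal is a within-array Z-score, averaged across arrays of one protein sequence run at different concentrations or buffers and across linkers. A negative Z-score can be read as non-binding.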

[2] = biological target: Gal(b1-4)GlcNAc(b1-2)Man(a1-6)[GlcNAc(b1-2)Man(a1-3)]Man(b1-4)GlcNAc(b1-4)GlcNAc
Outline: as §1

[3] = biological target: Gal(b1-4)GlcNAc(b1-2)Man(a1-6)[Man(a1-3)]Man(b1-4)GlcNAc(b1-4)GlcNAc
Outline: as §1

[4] = biological target: Gal(b1-4)GlcNAc(b1-2)[Gal(b1-4)GlcNAc(b1-4)]Man(a1-3)[Gal(b1-4)GlcNAc(b1-2)Man(a1-6)]Man(b1-4)GlcNAc(b1-4)GlcNAc
Outline: as §1

[5] = biological target: Gal(b1-4)GlcNAc(b1-2)[Gal(b1-4)GlcNAc(b1-4)]Man(a1-3)[Gal(b1-4)GlcNAc(b1-2)[Gal(b1-4)GlcNAc(b1-6)]Man(a1-6)]Man(b1-4)GlcNAc(b1-4)GlcNAc
Outline: as §1

[6] = biological target: Gal(b1-4)GlcNAc(b1-2)[Gal(b1-4)GlcNAc(b1-4)]Man(a1-3)[GlcNAc(b1-4)][Gal(b1-4)GlcNAc(b1-2)Man(a1-6)]Man(b1-4)GlcNAc(b1-4)GlcNAc
Outline: as §1

[7] = biological target: Gal(b1-4)GlcNAc(b1-2)[Gal(b1-4)GlcNAc(b1-6)]Man(a1-6)[GlcNAc(b1-4)][Gal(b1-4)GlcNAc(b1-2)Man(a1-3)]Man(b1-4)GlcNAc(b1-4)GlcNAc
Outline: as §1

[8] = biological target: Gal(b1-4)GlcNAc(b1-3)Gal(b1-3)GlcNAc
Outline: as §1

[9] = biological target: Gal(b1-4)GlcNAc(b1-3)Gal(b1-4)Glc
Outline: as §1

[10] = biological target: Gal(b1-4)GlcNAc(b1-3)Gal(b1-4)GlcNAc
Outline: as §1

[11] = biological target: Gal(b1-4)GlcNAc(b1-3)Gal(b1-4)GlcNAc(b1-3)Gal(b1-4)GlcNAc
Outline: as §1

[12] = biological target: Gal(b1-4)GlcNAc(b1-3)Gal(b1-4)[Fuc(a1-3)GlcNAc(b1-6)]Gal(b1-4)Glc
Outline: as §1

[13] = biological target: Gal(b1-4)GlcNAc(b1-3)Gal(b1-4)[Fuc(a1-3)]GlcNAc(b1-3)Gal(b1-4)[Fuc(a1-3)]GlcNAc
Outline: as §1

[14] = biological target: Gal(b1-4)GlcNAc(b1-3)GalNAc
Outline: as §1

[15] = biological target: Gal(b1-4)GlcNAc(b1-3)[Gal(b1-4)GlcNAc(b1-6)]Gal(b1-4)GlcNAc
Outline: as §1

[16] = biological target: Gal(b1-4)GlcNAc(b1-3)[Gal(b1-4)GlcNAc(b1-6)]GalNAc
Outline: as §1

[17] = biological target: Gal(b1-4)GlcNAc(b1-3)[GlcNAc(b1-6)]Gal(b1-4)GlcNAc
Outline: as §1

[18] = biological target: Gal(b1-4)GlcNAc(b1-6)Gal(b1-4)GlcNAc
Outline: as §1

[19] = biological target: Gal(b1-4)GlcNAc(b1-6)Gal(b1-4)GlcNAc(b1-6)GalNAc
Outline: as §1

[20] = biological target: Gal(b1-4)GlcNAc(b1-6)GalNAc
Outline: as §1

[21] = biological target: Gal(b1-4)GlcNAc(b1-6)[Gal(b1-3)]GalNAc
Outline: as §1

[22] = biological target: Gal(b1-4)GlcNAc(b1-6)[Gal(b1-3)]GlcNAc
Outline: as §1

Gal(b1-6)Gal = biological target: Gal(b1-6)Gal
Outline: as §1

Gal3S(b1-3)GalNAc = biological target: Gal3S(b1-3)GalNAc
Outline: as §1

Gal3S(b1-3)GlcNAc = biological target: Gal3S(b1-3)GlcNAc
Outline: as §1

[23] = biological target: Gal3S(b1-3)[Fuc(a1-4)]GlcNAc
Outline: as §1

Gal3S(b1-4)Glc = biological target: Gal3S(b1-4)Glc
Outline: as §1

Gal3S(b1-4)Glc6S = biological target: Gal3S(b1-4)Glc6S
Outline: as §1

Gal3S(b1-4)GlcNAc = biological target: Gal3S(b1-4)GlcNAc
Outline: as §1

Gal3S(b1-4)GlcNAc6S = biological target: Gal3S(b1-4)GlcNAc6S
Outline: as §1

[24] = biological target: Gal3S(b1-4)[Fuc(a1-3)]Glc
Outline: as §1

[25] = biological target: Gal3S(b1-4)[Fuc(a1-3)]Glc6S
Outline: as §1

Gal3S4S(b1-4)GlcNAc = biological target: Gal3S4S(b1-4)GlcNAc
Outline: as §1

Gal3S6S(b1-4)GlcNAc = biological target: Gal3S6S(b1-4)GlcNAc
Outline: as §1

Gal3S6S(b1-4)GlcNAc6S = biological target: Gal3S6S(b1-4)GlcNAc6S
Outline: as §1

Gal4S(b1-4)GlcNAc = biological target: Gal4S(b1-4)GlcNAc
Outline: as §1

Gal4S6S(b1-4)GlcNAc = biological target: Gal4S6S(b1-4)GlcNAc
Outline: as §1

B1: AAL (Aleuria aurantia), P18891 (protein)
chain: PTEFLYTSKIAAISWAATGGRQQRVYFQDLNGKIREAQRGGDNPWTGGSSQNVIGEAKLFSPLAAVTWKSAQGIQIRVYCVNKDNILSEFVYDGSKWITGQLGSVGVKVGSNSKLAALQWGGSESAPPNIRVYYQKSNGSGSSIHEYVWSGKWTAGASFGSTVPGTGIGATAIGPGRLRIYYQATDNKIREHCWDSNSWYVGGFSASASAGVSIAAISWGSTPNIRVYWQKGREELYEAAYGGSWNTPGQIKDASRPTPSLPDTFIAANSSGNIDISVFFQASGVSLQQWQWISGKGWSIGAVVPTGTPAGW
glycan array binding signal (z-score) [1]: -0.439 | glycan array binding signal (z-score) [2]: -0.434 | glycan array binding signal (z-score) [3]: -0.428 | glycan array binding signal (z-score) [4]: -0.353 | glycan array binding signal (z-score) [5]: -0.394 | glycan array binding signal (z-score) [6]: -0.348 | glycan array binding signal (z-score) [7]: -0.429 | glycan array binding signal (z-score) [8]: -0.42 | glycan array binding signal (z-score) [9]: -0.505 | glycan array binding signal (z-score) [10]: -0.491 | glycan array binding signal (z-score) [11]: -0.488 | glycan array binding signal (z-score) [12]: 0.521 | glycan array binding signal (z-score) [13]: 1.71 | glycan array binding signal (z-score) [14]: -0.451 | glycan array binding signal (z-score) [15]: -0.437 | glycan array binding signal (z-score) [16]: -0.507 | glycan array binding signal (z-score) [17]: -0.425 | glycan array binding signal (z-score) [18]: -0.421 | glycan array binding signal (z-score) [19]: -0.572 | glycan array binding signal (z-score) [20]: -0.524 | glycan array binding signal (z-score) [21]: -0.459 | glycan array binding signal (z-score) [22]: -0.654 | glycan array binding signal (z-score) (Gal(b1-6)Gal): -0.449 | glycan array binding signal (z-score) (Gal3S(b1-3)GalNAc): -0.499 | glycan array binding signal (z-score) (Gal3S(b1-3)GlcNAc): -0.5 | glycan array binding signal (z-score) [23]: 1.92 | glycan array binding signal (z-score) (Gal3S(b1-4)Glc): -0.493 | glycan array binding signal (z-score) (Gal3S(b1-4)Glc6S): -0.488 | glycan array binding signal (z-score) (Gal3S(b1-4)GlcNAc): -0.519 | glycan array binding signal (z-score) (Gal3S(b1-4)GlcNAc6S): -0.459 | glycan array binding signal (z-score) [24]: 0.541 | glycan array binding signal (z-score) [25]: 0.357 | glycan array binding signal (z-score) (Gal3S4S(b1-4)GlcNAc): -0.432 | glycan array binding signal (z-score) (Gal3S6S(b1-4)GlcNAc): -0.482 | glycan array binding signal (z-score) (Gal3S6S(b1-4)GlcNAc6S): -0.495 | glycan array binding signal (z-score) (Gal4S(b1-4)GlcNAc): -0.535 | glycan array binding signal (z-score) (Gal4S6S(b1-4)GlcNAc): -0.491
